Measured values: the supplement of paper PMC3334620
The full ranking holds about 33,000 sequences; the median of “E-score (-0.5 to 0.5)” is about -0.011, and the highest 2% start at about 0.28. This is one part of the list.

Molecular target: T1, Gcr1 (UniProt P07261)
T1 sequence: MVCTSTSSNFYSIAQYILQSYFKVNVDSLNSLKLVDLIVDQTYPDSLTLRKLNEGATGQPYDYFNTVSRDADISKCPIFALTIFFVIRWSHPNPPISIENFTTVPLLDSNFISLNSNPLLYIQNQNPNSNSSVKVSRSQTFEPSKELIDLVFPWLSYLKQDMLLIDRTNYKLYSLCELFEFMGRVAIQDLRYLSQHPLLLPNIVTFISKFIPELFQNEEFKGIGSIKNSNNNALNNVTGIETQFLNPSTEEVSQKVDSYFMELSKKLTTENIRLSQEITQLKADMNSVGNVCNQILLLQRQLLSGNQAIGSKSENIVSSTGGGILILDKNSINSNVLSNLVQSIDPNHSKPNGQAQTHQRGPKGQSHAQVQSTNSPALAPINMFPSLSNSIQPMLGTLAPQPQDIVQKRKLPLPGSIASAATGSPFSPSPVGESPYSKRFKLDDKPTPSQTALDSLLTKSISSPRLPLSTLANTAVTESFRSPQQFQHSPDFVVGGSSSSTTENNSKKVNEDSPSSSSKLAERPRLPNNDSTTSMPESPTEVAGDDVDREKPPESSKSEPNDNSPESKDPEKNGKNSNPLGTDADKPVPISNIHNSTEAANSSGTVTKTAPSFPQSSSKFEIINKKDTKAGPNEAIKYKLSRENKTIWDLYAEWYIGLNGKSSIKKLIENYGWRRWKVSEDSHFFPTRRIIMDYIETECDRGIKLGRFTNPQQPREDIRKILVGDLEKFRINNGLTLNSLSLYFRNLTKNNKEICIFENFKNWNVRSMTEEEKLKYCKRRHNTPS
Assay: PBM E-score (8-mer binding enrichment) (E-score (-0.5 to 0.5)); higher = stronger / more preferred TF binding; most listed sequences are background and not binding sites
Conditions: protein concentration: 100 nM; construct: GST-full length
Summary of the method: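 E-scores (a modified Wilcoxon-Mann-Whitney statistic) were assigned by the Universal PBM Analysis Suite to every ungapped eight-base word pooled with its reverse complement. The input came from universal all-10-mer Agilent arrays made double-stranded by primer extension and probed with GST-tagged yeast transcription factors at about 100-200 nM. Fluorescent anti-GST detected bound protein, and masliner normalised the scans.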

Row | Sequence | PBM E-score
1 | CTCCGCAA | 0.0291
2 | CCATTAAA | 0.139
3 | AGAAGATA | 0.141
4 | CGTTTATA | 0.18
5 | AGGCACAC | -0.148
6 | GATAAGCA | 0.057
7 | ACGCAGCA | -0.0163
8 | AGGGGTGC | 0.0379
9 | CATCTGAG | 0.187
10 | GTGAGAGA | -0.215
11 | ACGTGACC | -0.103
12 | TCCGAAAA | 0.222
13 | ACTCTCGG | -0.101
14 | ACACCTCA | 0.0722
15 | ACCGGCTC | -0.0398
16 | ATAACTAG | 0.12
17 | GACGCACA | -0.0013
18 | ACCCTGAG | 0.0519
19 | CTATGATC | -0.128
20 | GTTCAAAA | 0.0537
21 | CCAGGTTA | 0.056
22 | CAAAGACC | 0.00996
23 | GATGGACA | -0.0299
24 | CACCCATA | 0.0425
25 | GAATCGGC | 0.11

Row | Sequence | PBM E-score
26 | ACACGATC | 0.0856
27 | CATCCGCC | -0.0197
28 | AGGCTGGA | -0.133
29 | ACTAATCT | 0.111
30 | CGCGCCCC | 0.243
31 | ATGACCTA | -0.226
32 | AGATTAGA | -0.0228
33 | AAGTTCGT | 0.0698
34 | GAGCTGCA | -0.0802
35 | CCGTCATC | -0.159
36 | ATGATTCA | -0.105
37 | GAATACCC | 0.0233
38 | CAGACTCC | 0.172
39 | CGCCAGAC | 0.043
40 | ACAAGTAA | 0.0253
41 | CTTTATAC | 0.063
42 | AGACGAGC | -0.0948
43 | GCCTCCAA | 0.0769
44 | CCATGACG | -0.036
45 | CTGCGCTA | -0.00164
46 | GCCGGAGA | -0.0663
47 | AGTAGAAT | -0.00816
48 | CTGGTCTA | -0.243
49 | GCCGACTA | 0.00147
50 | CGACATCC | 0.166

Row | Sequence | PBM E-score
51 | AGATTTCC | -0.0328
52 | ACGTTCTA | -0.013
53 | AAGGCAAA | -0.168
54 | CAACGGGA | 0.0126
55 | ACCGCTTG | -0.0218
56 | GTGGTACA | -0.105
57 | CGCGTGAC | 0.135
58 | AACAGGAG | -0.0445
59 | CTAAAATC | 0.111
60 | TGAAATAA | 0.0918
61 | GCTTTTAA | 0.0873
62 | TCGCGAAA | 0.0716
63 | TACGAGAA | 0.119
64 | CCGCATCG | -0.0819
65 | TACTACTA | 0.147
66 | CCACTGAG | 0.182
67 | GATCCAAA | 0.0721
68 | AGCACTGG | -0.0389
69 | AGTCCGAG | -0.0645
70 | ACAACCAT | 0.00146
71 | AGCTCACC | 0.00067
72 | CGAATCAG | -0.0648
73 | AGTACAGA | 0.155
74 | TACCGGGA | 0.18
75 | AACATTAA | 0.0199

Row | Sequence | PBM E-score
76 | ACACTCGT | -0.152
77 | CTCATCTA | -0.077
78 | CGCGATTC | 0.0683
79 | AGATCACC | -0.0945
80 | ACCGCATC | -0.017
81 | ACGCCCCG | -0.054
82 | CCTGACAC | 0.151
83 | CGGCGCCA | 0.308
84 | CAGAGCCG | 0.115
85 | GATAGTGC | -0.0925
86 | ACTAATGG | 0.122
87 | CATCCCAC | 0.0413
88 | GATTCAAA | 0.0575
89 | GAGTTATC | -0.154
90 | CACCTTTA | 0.0192
91 | AGTGTGTA | 0.0322
92 | AAGAGGAG | -0.0404
93 | ATACCTAG | -0.0202
94 | GACCGGGA | 0.0433
95 | CTAGCTAC | 0.0361
96 | ATGGCAAT | -0.0868
97 | GATTTACC | 0.155
98 | GTAATTGA | 0.177
99 | ACACCACT | 0.26
100 | CCACCCGC | 0.00328

Row | Sequence | PBM E-score
101 | AACAAGCT | -0.239
102 | GTTTGGGA | -0.0986
103 | AATGTCCA | 0.0143
104 | CAAATTCA | -0.0459
105 | CGTTTGAG | -0.183
106 | CCACACGA | 0.0146
107 | TAAGCTCA | -0.0536
108 | AAGCTCAG | 0.0786
109 | AAACGAAA | -0.0157
110 | CATAGCGC | 0.125
111 | CATAACGC | -0.0716
112 | AGATATCA | -0.0158
113 | TGGTATAA | 0.182
114 | GAACTTCC | 0.248
115 | AAACTTCC | 0.0871
116 | GATATACC | -0.0609
117 | GATGTGAA | -0.0483
118 | TAGGAACA | 0.0697
119 | GTTCCCCA | 0.0853
120 | AACGCGTT | -0.149
121 | GCGAAATA | -0.112
122 | AAAACATC | 0.102
123 | CAACAGAG | 0.0878
124 | AACGCGTC | -0.138
125 | CCATTCCA | 0.192

Row | Sequence | PBM E-score
126 | CTGGGAGC | 0.237
127 | AGGAGGGC | -0.143
128 | CGGAGACA | -0.0111
129 | CCATACCC | -0.0393
130 | GGCACCGA | 0.168
131 | CTGTGGGC | 0.0855
132 | AATCGCGC | -0.146
133 | AAAATTCG | -0.169
134 | ACCCTTAT | -0.201
135 | CCCCCGGA | -0.0989
136 | GAAGCAAC | -0.154
137 | CGCGGTGA | 0.0534
138 | TAACCGCA | 0.0873
139 | CGATCAAA | -0.0595
140 | AGGAATTA | 0.0425
141 | CCTCCCCG | 0.0903
142 | ATTTTTCA | 0.1
143 | AGAAGAGA | 0.01
144 | AAGAAGTC | 0.0767
145 | ATCGATCC | -0.0388
146 | CATGCGCG | -0.262
147 | ATGCTTGG | -0.112
148 | CTACGAGA | 0.169
149 | AACTTCCC | -0.0101
150 | GCGACCGA | 0.0959

Row | Sequence | PBM E-score
151 | CTTCTGTA | 0.0812
152 | CAGTTTCG | -0.0405
153 | AATGGAGC | 0.0723
154 | GGTCCGAC | -0.223
155 | GGGTTAAA | -0.00202
156 | ATCATGGA | 0.171
157 | GCCGCGGC | 0.181
158 | AACGCACA | -0.103
159 | CGAGCAGA | -0.16
160 | AAGTTTGC | 0.0558
161 | CGAGAAAG | -0.122
162 | AACTCGTA | -0.0446
163 | CGCTCTGC | -0.126
164 | CATAGCGG | -0.0193
165 | ATTTCCTC | -0.197
166 | TCGCACGA | -0.0304
167 | GGGACTCA | -0.0478
168 | CGGGCCCC | 0.161
169 | AGGCGCCA | 0.268
170 | GGTGACAC | -0.0256
171 | CCGAGGGA | -0.183
172 | ACCAGATG | 0.183
